# Assay results published in the supplement of paper PMC3334620.
# The full ranking holds about 33,000 sequences; the median of “E-score (-0.5 to 0.5)” is about -0.043, and the highest 2% start at about 0.37. Some of the results follow.
# Molecular target: T1, Upc2 (UniProt Q12151)
# T1 sequence: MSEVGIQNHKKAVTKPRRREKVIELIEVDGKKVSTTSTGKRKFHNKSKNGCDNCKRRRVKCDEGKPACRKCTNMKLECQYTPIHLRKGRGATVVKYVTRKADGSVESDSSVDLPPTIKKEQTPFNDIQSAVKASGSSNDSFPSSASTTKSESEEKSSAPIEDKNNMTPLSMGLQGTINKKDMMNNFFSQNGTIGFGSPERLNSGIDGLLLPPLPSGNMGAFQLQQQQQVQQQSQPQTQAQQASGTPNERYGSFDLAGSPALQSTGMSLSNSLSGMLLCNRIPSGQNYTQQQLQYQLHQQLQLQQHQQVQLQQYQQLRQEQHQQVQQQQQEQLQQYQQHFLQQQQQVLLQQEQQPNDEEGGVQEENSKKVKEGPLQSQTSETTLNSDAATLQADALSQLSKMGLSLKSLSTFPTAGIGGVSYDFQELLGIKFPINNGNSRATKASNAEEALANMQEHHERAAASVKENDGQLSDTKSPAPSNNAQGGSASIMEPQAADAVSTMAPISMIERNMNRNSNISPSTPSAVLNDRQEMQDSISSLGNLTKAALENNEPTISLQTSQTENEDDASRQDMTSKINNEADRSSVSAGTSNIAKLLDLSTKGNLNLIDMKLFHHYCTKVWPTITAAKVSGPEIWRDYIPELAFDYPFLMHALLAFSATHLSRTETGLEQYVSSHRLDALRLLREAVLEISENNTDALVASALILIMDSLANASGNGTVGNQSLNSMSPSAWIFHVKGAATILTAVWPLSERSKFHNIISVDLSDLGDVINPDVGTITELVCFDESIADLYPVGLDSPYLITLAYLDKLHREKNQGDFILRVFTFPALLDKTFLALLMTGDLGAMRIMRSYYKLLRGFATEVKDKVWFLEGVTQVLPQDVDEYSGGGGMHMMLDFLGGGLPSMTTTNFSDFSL
# Test: PBM E-score (8-mer binding enrichment) (E-score (-0.5 to 0.5)); higher = stronger / more preferred TF binding; most listed sequences are background and not binding sites
# Settings: protein concentration: 200 nM; construct: GST-full length
# Method in brief: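 Detection of bound protein used fluorescent anti-GST, with scans normalised by masliner. The proteins were GST-tagged yeast transcription factors applied at about 100-200 nM to universal all-10-mer Agilent arrays made double-stranded by primer extension. Each ungapped eight-base word, pooled with its reverse complement, was scored with an E-score from the Universal PBM Analysis Suite.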
row,Sequence,PBM E-score
1,CTAACTCA,-0.305
2,ATCGAACA,0.138
3,CGGATGGC,-0.165
4,ACATTTTA,0.187
5,GCGTTCGA,-0.0001
6,GCGCGGAC,-0.148
7,GTAATTTA,0.215
8,CCCTGGTC,-0.227
9,CCCAATGC,-0.289
10,ACCTGAAT,-0.00113
11,ACCAAAGG,-0.204
12,CGTTTTAA,0.327
13,AGACGGAA,-0.137
14,ACGAATTA,0.346
15,TCCCTAAA,0.0118
16,GAGTATAA,0.198
17,AAAGTGAA,-0.0248
18,ATTCGGGC,-0.0661
19,CTACTCAC,-0.248
20,ACTCCACA,-0.11
21,AACGGTTG,0.124
22,CAATCTCC,-0.331
23,AACCCGAC,0.168
24,AAGTGACT,-0.156
25,CCTGGTGA,-0.186

row,Sequence,PBM E-score
1,ACAGCAGT,0.0544
2,AAACTCAA,0.0999
3,CGAAGCGA,0.252
4,ATGTTTCC,-0.0146
5,CGTGGGTC,-0.244
6,AGAGGGAC,-0.106
7,GCCAGAGC,-0.287
8,GGCGCAAA,-0.035
9,AGCCCAAA,-0.0284
10,CCCGCCAA,0.00973
11,CGGGCGGC,-0.18
12,AAAAGACG,0.0464
13,ACAAGTTA,0.0036
14,ACGTCTGC,-0.175
15,GAGTCGGA,-0.0556
16,GGTGCAAC,-0.0668
17,AGGACGCG,-0.154
18,CACGACCG,0.00924
19,AGCTCGCG,0.193
20,ACGCCGAG,0.148
21,CGGTTCGA,0.181
22,AGAGCCGG,-0.155
23,TAAGGAAA,-0.0821
24,ATTGTTAC,0.136
25,CAGTAGAG,0.0142

row,Sequence,PBM E-score
1,CTGGCAAG,-0.237
2,AGCTTATG,-0.1
3,ATTATCTC,-0.0303
4,ATACTGGC,-0.126
5,GAATTCTC,0.117
6,AGAGCCCA,-0.159
7,GATCCACC,-0.109
8,AACGTGGT,0.0693
9,GGCTGGTA,-0.11
10,CCATCGGG,-0.00141
11,AGGTGCAG,-0.259
12,AGTTGTGC,0.165
13,CCGATTCC,-0.122
14,AGTCTATG,-0.238
15,ATCAAGCA,0.0935
16,TATGACGA,0.0722
17,CTGCGGTC,-0.133
18,CCAGTATA,0.0398
19,CCTTAAAA,-0.0827
20,ATCCATAG,-0.148
21,GAAAGCCC,0.152
22,ATGAAGAA,-0.0689
23,GCTCATAC,0.18
24,TAGCAGCA,-0.246
25,CCGACGCG,0.16

row,Sequence,PBM E-score
1,ACATGCTC,-0.0815
2,ATATAAGC,0.0337
3,TAATGGGA,-0.294
4,CCTCCAAC,-0.201
5,ACGATATA,0.284
6,CACAGAAG,-0.291
7,TCATCCGA,0.206
8,CACGAAAC,0.0525
9,GGCAAAAC,-0.152
10,CCGTGCCA,-0.235
11,GCGACCTA,0.129
12,AGGACAAC,0.088
13,CCTAAGCG,0.313
14,GCTGGTGA,-0.0314
15,GCAATACC,0.0211
16,GGAAAGAC,-0.169
17,AGTCCAAG,-0.187
18,TCTATTAA,0.0192
19,ATAAAAGG,-0.135
20,GAAATTTA,0.232
21,CAACAGTG,-0.21
22,ACACCCCA,-0.0833
23,ACTATGAG,-0.218
24,CGATTGAG,0.132
25,GAATTATA,0.115

row,Sequence,PBM E-score
1,CTACTACA,-0.0926
2,ACGACTAC,0.324
3,GCTGTGAC,0.111
4,TCTGTTCA,-0.103
5,CTATAGGA,-0.106
6,ATCCTCCA,-0.106
7,CGACGACA,0.173
8,AGGAGTCA,-0.0653
9,ACCACGGC,-0.181
10,CGTTCGAG,0.27
11,GGAAGAAC,0.0221
12,AATGTCGA,-0.106
13,GACTTATA,0.248
14,GCATTGTA,-0.16
15,ATCTCGGA,0.132
16,AGTGTCGA,0.103
17,CAATTGTC,-0.0538
18,ACACTACG,0.0827
19,ACGTGGCA,-0.117
20,CCGCCTCG,0.208
21,ACCCACGG,-0.159
22,AGGTTGTA,0.127
23,CGGGCTTC,-0.203
24,ACAGGAAC,0.0706
25,TTCATAAA,-0.113

row,Sequence,PBM E-score
1,GGCGACGA,-0.118
2,AAATGCGA,0.187
3,AACAGTGC,-0.0685
4,GAGACAAA,-0.0497
5,CTTAATAA,0.0701
6,CACGAGTG,0.0785
7,GAAATAAC,-0.0655
8,GGCGGTGA,-0.0751
9,ACCTTTAC,0.16
10,CGCGCCCA,0.00884
11,TAACTTAA,-0.0492
12,TATCAACA,-0.00369
13,ACGGCTAA,0.118
14,GCAGTCGA,-0.137
15,AGAGTGTC,0.0268
16,ATATGCAT,-0.0168
17,CAGGTCCC,-0.276
18,AGCACATG,-0.0669
19,GTATAGTA,0.341
20,CTCAAAGA,-0.149
21,ACAGAAAG,-0.0455
22,AACAACAG,-0.11
23,CAAGGACA,-0.209
24,ATATCTTG,-0.192
25,GGGCACTA,-0.0406

row,Sequence,PBM E-score
1,ACTATAAA,-0.0455
2,AATCGACG,0.211
3,AATCTCGT,0.314
4,CCTCACAA,-0.225
5,TAAAAATA,0.0284
6,ATGAAGTA,-0.0559
7,AGTTCAGC,-0.205
8,CGATTGGA,-0.0149
9,GTCGTCAA,-0.0271
10,GAATATAC,0.236
11,GTGGTAAC,0.0791
12,AGCGCTTG,-0.188
13,CGTCAAAA,-0.0216
14,ATATGGAA,-0.00558
15,CATAGTCG,0.0231
16,CTGGTAGC,-0.3
17,CGTATTGA,0.321
18,AAGAATGC,-0.127
19,ACCCTCCG,-0.0882
20,ACCGGACG,-0.0895
21,ATCTAAGA,-0.179
22,ACGTAACA,-0.0115
